# Laboratory results reported in PubChem BioAssay AID488969 (Vanderbilt High Throughput Screening Facility, 2010).
# Over roughly 110,000 compounds, “z-score” has its median near -0.1; the highest 2% begin near 2. This is one part of the list. Activity calls are given as the source filed them.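 Rule for the calls: active = z-score in the third read window above 3 or below -3; inactive = the rest.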
# Target: Metabotropic glutamate receptor 8 (Rattus norvegicus) (UniProt P70579)
# Experiment: rat mGluR8 modulators via GIRK flux, primary screen, cell-based, thallium flux, HTS (AID 488969)
# Settings: HEK293 rat mGluR8, GIRK (G protein-gated inwardly rectifying potassium channel) thallium flux, FluoZin2; at 10 µM; stronger effect = higher value; submaximal glutamate (EC20) added with thallium
# Chain of UniProt P70579 (P70579 whole entry, looked up): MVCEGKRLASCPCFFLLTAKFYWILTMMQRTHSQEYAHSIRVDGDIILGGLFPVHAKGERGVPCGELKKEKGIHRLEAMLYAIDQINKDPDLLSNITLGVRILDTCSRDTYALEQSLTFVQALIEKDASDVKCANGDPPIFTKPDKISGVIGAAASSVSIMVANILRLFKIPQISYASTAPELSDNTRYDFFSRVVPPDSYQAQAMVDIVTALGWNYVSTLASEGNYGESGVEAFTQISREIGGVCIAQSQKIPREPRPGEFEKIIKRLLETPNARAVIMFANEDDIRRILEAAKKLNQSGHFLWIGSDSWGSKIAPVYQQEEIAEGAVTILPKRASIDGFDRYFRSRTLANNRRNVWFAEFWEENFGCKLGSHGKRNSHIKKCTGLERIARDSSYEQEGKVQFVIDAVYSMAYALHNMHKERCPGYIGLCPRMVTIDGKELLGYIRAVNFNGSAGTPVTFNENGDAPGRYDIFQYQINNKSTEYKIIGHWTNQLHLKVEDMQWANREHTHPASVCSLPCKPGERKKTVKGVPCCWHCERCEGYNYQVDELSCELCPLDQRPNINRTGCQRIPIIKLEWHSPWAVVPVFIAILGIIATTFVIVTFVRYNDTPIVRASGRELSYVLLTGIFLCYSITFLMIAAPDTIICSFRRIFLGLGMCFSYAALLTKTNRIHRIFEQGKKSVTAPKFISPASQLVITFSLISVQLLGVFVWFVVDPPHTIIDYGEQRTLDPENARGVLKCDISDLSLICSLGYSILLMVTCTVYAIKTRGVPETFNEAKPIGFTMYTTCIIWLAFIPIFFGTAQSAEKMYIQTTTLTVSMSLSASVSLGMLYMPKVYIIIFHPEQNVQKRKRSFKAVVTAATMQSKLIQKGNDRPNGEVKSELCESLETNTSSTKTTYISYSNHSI
row,SMILES,z-score
1,CCOc1ccc(-c2nc(N)ncc2-c2ccccc2)c(O)c1,0.261
2,Cc1cccc(OCCNc2nc3c(c(=O)n(C)c(=O)n3C)n2C)c1,0.153
3,COc1ccc(OC)c(NC(=O)CSc2ccc3ccccc3c2)c1,-0.708
4,Cc1cc(Cl)c(S(=O)(=O)Nc2ccc3c(c2)OCO3)cc1OCC(N)=O,0.115
5,C=CCNc1nc(NCCN2CCOCC2)nc(N2CCOCC2)n1,0.497
6,CCCn1c(=O)c2ccccc2n2c(SCc3cc(=O)oc4ccc5ccccc5c34)nnc12,-0.654
7,O=C(NC(=S)Nc1ccccc1N1CCOCC1)c1ccco1,active: 9.71
8,CCOc1ccc(-c2cc(C)n3nc(C(N)=O)cc3n2)cc1,active: 5.02
9,O=C1OCC/C1=C\c1ccccc1O,0.146
10,CC1CCN(c2c(NCC3CCC(C(=O)N4CCCCC4)CC3)c(=O)c2=O)CC1 (stereo not given),-0.344
11,Cc1ccc(S(=O)(=O)N2CCSC2C(=O)O)cc1 (stereo not given),-0.174
12,O=C(Nc1cccc2nsnc12)c1ccc(F)cc1,0.651
13,CCOc1ccc(C2C=C(c3ccccc3)Nc3ncnn32)cc1 (stereo not given),-1.27
14,Cc1ccc(F)cc1NC(=O)C12CC3CC(C1)CC(n1cnc([N+](=O)[O-])n1)(C3)C2,0.29
15,COc1ccc(NC(=O)c2cn(-c3ccccc3)nc2-c2cc3ccccc3o2)cc1,-0.453
16,CCCCOC(=O)Nc1ccc(C(N)=O)cc1,0.507
17,Cc1ccccc1NC(=O)CSC1=NCCN1,-0.181
18,Brc1ccc(-c2cnnc(N3CCCC3)n2)cc1,0.0522
19,COc1cccc(CNC(=O)Cn2nc(-c3ccc(Cl)cc3)ccc2=O)c1,-0.52
20,COc1ccc(-c2cc(C)nc(SCC(=O)c3cccc([N+](=O)[O-])c3)n2)cc1,-0.325
21,CSCCC(C(=O)OCC(=O)c1ccc(C)c(C)c1)N1C(=O)c2cc(Cl)c(Cl)cc2C1=O (stereo not given),0.00574
22,CCc1c(C(=O)NC2CCCCC2)[nH]c(C)c1C(C)=O,-0.364

row,SMILES,z-score
1,CC1=C(C#N)CCC(=O)N1Cc1c(C)cc(C)cc1C,-0.0955
2,Cc1cc(N)ccc1S(C)(=O)=O,0.106
3,Cc1ccc(N2C(=O)C3C4CC(=O)C(c5ccccc54)C3C2=O)cc1C (stereo not given),0.0205
4,CCC(C)NC(=O)/C=C/c1cccs1 (stereo not given),0.151
5,O=C(O)CCC(=O)Nc1ccccc1C(=O)NCc1ccccc1,-0.155
6,Cc1cc(C)n2c3c(c(C#N)c2n1)CC(C)(C)OC3,0.277
7,O=C1c2ccccc2NC(c2ccccc2Br)N1CCCN1CCOCC1 (stereo not given),-0.503
8,CCn1c(NCc2c[nH]c3ccccc23)nc2ccccc21,-0.139
9,CCOC(=O)C1CCN(Cc2nc3ccccc3c(=O)n2-c2ccc(OCC)cc2)CC1,-0.482
10,CC(=O)Nc1sc2c(c1C(N)=O)CCC2,0.293
11,CCOc1ccc(C(=O)Nc2ccc(-c3cc4ccccc4oc3=O)c(C)c2)cc1[N+](=O)[O-],0.0272
12,COc1ccc(C(CC(=O)NCc2ccccc2)Sc2n[nH]c(-c3ccc(Cl)cc3)n2)cc1 (stereo not given),-0.139
13,COc1ccc(Cl)cc1Nc1nc(NCCO)nc(N2CCCC2)n1,-0.194
14,CCOc1ccc(S(=O)(=O)N2c3ccccc3CC2C)cc1 (stereo not given),-0.694
15,CCN(CC)C(=O)CSc1nnc([C@@H](NC(=O)OC(C)(C)C)C(C)C)o1,0.525
16,CCN(CC)c1ccc(C(=O)NC(=S)N2CCN(Cc3ccc4c(c3)OCO4)CC2)cc1,active: 10
17,Cc1ccc(-c2nnc(SCC(=O)Nc3ccccc3F)o2)cc1,-0.425
18,CC(C)(C)C(=O)COC(=O)c1ccc(O)cc1,-0.915
19,CCCCCCC1CCC(c2nc(-c3ccncc3)no2)CC1 (stereo not given),-0.112
20,COC(=O)c1cn(C)c2ccc(S(=O)(=O)N3CCCCC3)cc2c1=O,-0.17
21,CCOC(=O)Cc1csc(NC(=S)NC(=O)CC(C)C)n1,1.27
22,CC(=O)c1ccc(OCCn2cnc3ccccc32)cc1,1.01

row,SMILES,z-score
1,C(=N\Nc1nc2ccccc2s1)/c1cccs1,-0.0364
2,CC(C)NC(=O)c1sc2nc(-c3cccs3)cc(-c3cccs3)c2c1N,-0.223
3,CC(C)(C)C(=O)Nc1ccc(C(=O)NCc2cccnc2)cc1,1.3
4,CN1C2CCC1/C(=C\c1ccccc1)C(=O)/C2=C\c1ccccc1,-0.182
5,CCOc1nc(Nc2ccc(OC)cc2)nc(OCC)n1,-1.62
6,Cn1cnc([N+](=O)[O-])c1Nc1ccc(O)cc1,-0.174
7,COc1ccc(Oc2coc3cc(OC(=O)/C=C/c4ccc(F)cc4)ccc3c2=O)cc1,-0.00429
8,O=C(CN1CCN(Cc2ccccc2)CC1)Nc1ccc(Cl)cn1,-0.158
9,O=C(CSc1ccccc1C(=O)O)NC1CCCCCCC1,-0.178
10,CC(Sc1nncs1)C(=O)Nc1ccc(Cl)cn1 (stereo not given),-0.278
11,Cc1cc(=O)oc2cc(NC(=O)C3COc4ccccc4O3)ccc12 (stereo not given),0.156
12,Cc1nnc(SCCn2c(N3CC(C)CC(C)C3)nc3c2c(=O)n(C)c(=O)n3C)s1 (stereo not given),-0.0272
13,COc1cc(/C=N/NC(=O)C(Cc2c[nH]c3ccccc23)NC(=O)OCc2ccccc2)cc([N+](=O)[O-])c1O (stereo not given),-0.505
14,O=C1c2ccccc2C(=O)N1CN(C(=O)COc1ccc(Cl)cc1Cl)c1cccc(F)c1,-0.145
15,COc1ccc(C(=O)NCC(=O)OCC(=O)N2CCN(S(=O)(=O)c3ccccc3)CC2)cc1,-0.266
16,O=C(OCN1C(=O)c2ccccc2C1=O)c1ccco1,0.51
17,CC(C)(C)C1C=C(Sc2ccccc2)C(=O)O1 (stereo not given),-0.754
18,Cc1ccc(CSc2nnc(-c3cccnc3)n2N)cc1,-0.403
19,Cn1c(=O)n(C)c2cc([N+](=O)[O-])c(N3CCN(C(=O)c4cccc(Cl)c4)CC3)cc21,-0.269
20,Cc1cc2c(cc1C)NC(c1ccccn1)C1=C(CC(C)(C)CC1=O)N2 (stereo not given),-0.311
21,O=C(OCC1CC(c2ccccc2Cl)=NO1)c1ccc(Br)cc1 (stereo not given),-0.433
22,Cc1sc(NC(=O)CN2CCN(c3ccccn3)CC2)c(C#N)c1C,0.483

row,SMILES,z-score
1,Cc1cc(C)cc(NC(=O)COC(=O)CCCNC(=O)c2ccc(Cl)cc2)c1,-0.516
2,Cc1csc(NC(=O)CCSCCc2ccccn2)n1,-0.178
3,Cc1ccc(C)c(N(CC(=O)Nc2ccc(-c3nc4ccc(C)cc4s3)cc2)S(C)(=O)=O)c1,-0.3
4,Cc1ccc(S(=O)(=O)n2nc(C)c(C#N)c2N)cc1,0.264
5,CC(=O)N1CCN(CCN=CC2=C(O)CC(c3cccs3)CC2=O)CC1 (stereo not given),-0.239
6,NC(=O)c1ccc(NC(=O)COC(=O)c2c3c(nc4ccccc24)/C(=C\c2ccc4c(c2)OCO4)CCC3)cc1,0.219
7,O=[N+]([O-])c1nn(-c2ccc3c(c2)OCCO3)n(O)c1=Nc1ccccc1,-0.288
8,O=C(COC(=O)c1ccccc1NC(=O)c1ccco1)Nc1ccc2c(c1)OCO2,-0.318
9,O=C(NCc1ccc2c(c1)OCO2)C1CC(=O)N(c2ccc(F)cc2)C1 (stereo not given),0.589
10,Cc1cc2nc(-c3cccnc3SCC(=O)NCc3ccco3)[nH]c2cc1C,0.149
11,Cn1c(SCc2ccccc2Cl)nc2ccccc21,-0.264
12,CCOC(=O)C1=C(C)NC(=O)NC1c1ccc(OCCO)c(OC)c1 (stereo not given),-0.455
13,CCC1CCCCN1C(=O)c1cc2cc(Br)ccc2oc1=O (stereo not given),active: 7.8
14,Cc1ccc(C(=O)NC(=S)N2CC(C)OC(C)C2)cc1[N+](=O)[O-] (stereo not given),0.465
15,COc1ccc(/C(C)=N/Nc2ccc(C(=O)O)cc2)cc1OC,-0.146
16,COc1ccccc1C(=O)NCCC(=O)N1CC(=O)Nc2ccccc21,0.0633
17,COc1ccccc1N1Cc2ccccc2C1,0.168
18,CCC1(CC)Cc2ccccc2-c2nc(-c3ccccc3)oc(=O)c21,-0.0114
19,CCCCn1c(SCC(=O)NCCc2ccc(OC)c(OC)c2)nc2c1c(=O)n(C)c(=O)n2C,-0.507
20,NNc1nc2c(F)cc(F)cc2s1,-0.193
21,CCC(C)NC(=O)CSc1nc2c(sc3ccccc32)c(=O)n1CCCN1CCOCC1 (stereo not given),0.452
22,CCCCC(=O)Nc1ccc(NC(=O)c2ccc(C)c([N+](=O)[O-])c2)cc1OC,-0.2

row,SMILES,z-score
1,CCOC(=O)c1cnn(-c2nc(CC)nc3sc4c(c23)CCC4)c1N,0.937
2,CCOC(=O)c1oc2ccccc2c1CN1CCN(C)CC1,-0.155
3,Cc1cc(Cl)ccc1OCCCC(N)=O,0.108
4,O=C(O)c1cc([N+](=O)[O-])c(N2CCCC2)c([N+](=O)[O-])c1,-0.262
5,Cc1ccc(NC(=O)C(=O)Nc2ccccn2)cc1,0.304
6,O=C1CN(C(=O)COC(=O)c2cccc(S(=O)(=O)NCc3ccccc3)c2)c2ccccc2N1,-0.192
7,Cn1c(SCc2nc(-c3ccc(Cl)cc3)no2)nnc1-c1ccco1,0.0893
8,Cn1c(=O)c2c(nc(-n3ccnc3)n2Cc2ccc([N+](=O)[O-])cc2)n(C)c1=O,-0.129
9,O=C(NCc1cccs1)c1ccc([N+](=O)[O-])cc1Cl,-0.192
10,O=C(CN1C(=O)c2cccc3cccc1c23)Nc1ccc(S(=O)(=O)Nc2nccs2)cc1,-0.289
11,Cc1[nH]c2ccccc2c1/C=N/Nc1ccc([N+](=O)[O-])cc1S(=O)(=O)Nc1ccc(Cl)cc1,0.162
12,CCCCOCCCNC(=O)c1c(-c2ccccc2)noc1C,0.0239
13,O=C(CSc1nnc(-c2c[nH]c3ccccc23)o1)c1ccccc1,-0.218
14,CCn1c2c(c3cc(Cl)ccc31)CCCC2=O,-0.422
15,CCOC(=O)N1CCC(NC(=O)c2ccc3c(c2)sc2nc(-c4ccc(OC)cc4)cn23)CC1,1.25
16,CCN(CC)CCCNC(=O)c1nn(-c2ccccc2OC)c(=O)c2ccccc12,0.791
17,O=C(CSc1nc2ccccc2s1)NC1CCS(=O)(=O)C1 (stereo not given),0.199
18,Cc1ccc(-n2c(=O)c3c4c(sc3n(Cc3cc(=O)n5ccccc5n3)c2=O)CCC4)cc1C,-0.236
19,O=C(NCN1CCN(c2ccccc2F)CC1)c1ccccc1,0.915
20,N#Cc1c(/N=C/N2CCCC2)oc(-c2ccccc2)c1-c1ccccc1,-0.221
21,Cc1ccc(NC(=S)NCc2ccc3c(c2)OCO3)cc1C,-0.416
22,O=S(=O)(Nc1ccc2c(c1)OCO2)c1ccccc1,-0.421
